# Laboratory results: the supplement of paper PMC4604168 (melanoma cell lines)
# The list shows a part of the results. Many values rest on one well or one pass, so single values are uncertain.
# System: A101D
# Experiment: cell count relative to DMSO control; melanoma cells; higher = more viable cells
# Details: library dose: standard library concentration; 72 h
# 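Further: cells treated in 1,536-well plates, then fixed and DAPI-stained, with nuclei counted from automated high-throughput microscope images.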
row,SMILES,cell count [%]
1,"COc1cc([C@@H]2c3cc4c(cc3[C@@H](O[C@@H]3O[C@@H]5CO[C@@H](C)O[C@H]5[C@H](O)[C@H]3O)[C@H]3COC(=O)[C@H]23)OCO4)cc(OC)c1O [etoposide] + O=C(CCCCCCC(=O)Nc1ccccc1)NO [vorinostat] (first compound 0.1 µM, partner dose 0.4 µM)",80.9
2,"COc1cc([C@@H]2c3cc4c(cc3[C@@H](O[C@@H]3O[C@@H]5CO[C@@H](C)O[C@H]5[C@H](O)[C@H]3O)[C@H]3COC(=O)[C@H]23)OCO4)cc(OC)c1O [etoposide] + CCN(CC)CCNC(=O)c1c(C)[nH]c(/C=C2\C(=O)Nc3ccc(F)cc32)c1C [sunitinib] (first compound 0.1 µM, partner dose 2 µM)",58.1
3,"Cn1cnc2c(F)c(Nc3ccc(Br)cc3Cl)c(C(=O)NOCCO)cc21 [selumetinib] + CN(NC(=O)CC(=O)NN(C)C(=S)c1ccccc1)C(=S)c1ccccc1 [STA4783] (first compound 0.075 µM, partner dose 0.03 µM)",61.1
4,"COc1cc([C@@H]2c3cc4c(cc3[C@@H](O[C@@H]3O[C@@H]5CO[C@@H](C)O[C@H]5[C@H](O)[C@H]3O)[C@H]3COC(=O)[C@H]23)OCO4)cc(OC)c1O [etoposide] + CN1CCN(c2ccc3nc(-c4c(N)c5c(F)cccc5[nH]c4=O)[nH]c3c2)CC1 [Dovitinib] (first compound 0.1 µM, partner dose 0.5 µM)",68.3
5,"COc1cc([C@@H]2c3cc4c(cc3[C@@H](O[C@@H]3O[C@@H]5CO[C@@H](C)O[C@H]5[C@H](O)[C@H]3O)[C@H]3COC(=O)[C@H]23)OCO4)cc(OC)c1O [etoposide] + CC(=O)c1c(C)c2cnc(Nc3ccc(N4CCNCC4)cn3)nc2n(C2CCCC2)c1=O [palbociclib] (first compound 0.1 µM, partner dose 0.2 µM)",74.4
6,"CCN(CC)CCNC(=O)c1c(C)[nH]c(/C=C2\C(=O)Nc3ccc(F)cc32)c1C [sunitinib] + Cc1ccc(NC(=O)c2cccc(N(C)C)c2)cc1NC(=O)c1ccc(O)cc1 [ZM336372] (first compound 2 µM, partner dose 10 µM)",61.8
7,"COc1cc([C@@H]2c3cc4c(cc3[C@@H](O[C@@H]3O[C@@H]5CO[C@@H](C)O[C@H]5[C@H](O)[C@H]3O)[C@H]3COC(=O)[C@H]23)OCO4)cc(OC)c1O [etoposide] + CO[C@H]1C[C@@H]2CC[C@@H](C)[C@@](O)(O2)C(=O)C(=O)N2CCCC[C@H]2C(=O)O[C@H]([C@H](C)C[C@@H]2CC[C@@H](OCCO)[C@H](OC)C2)CC(=O)[C@H](C)/C=C(\C)[C@@H](O)[C@@H](OC)C(=O)[C@H](C)C[C@H](C)/C=C/C=C/C=C/1C [everolimus] (first compound 0.1 µM, partner dose 0.1 µM)",70.9
8,"CCN(CC)CCNC(=O)c1c(C)[nH]c(/C=C2\C(=O)Nc3ccc(F)cc32)c1C [sunitinib] + CC1(C)NC(=O)N(c2ccc([N+](=O)[O-])c(C(F)(F)F)c2)C1=O [nilutamide] (first compound 2 µM, partner dose 5 µM)",62
9,"Cn1cnc2c(F)c(Nc3ccc(Br)cc3Cl)c(C(=O)NOCCO)cc21 [selumetinib] + CCN(CC)CCNC(=O)c1c(C)[nH]c(/C=C2\C(=O)Nc3ccc(F)cc32)c1C [sunitinib] (first compound 0.075 µM, partner dose 2 µM)",62.9
10,"Cn1cnc2c(F)c(Nc3ccc(Br)cc3Cl)c(C(=O)NOCCO)cc21 [selumetinib] + COc1ccc(Cl)c(Nc2nc3ccccc3nc2NS(=O)(=O)c2cccc(NC(=O)C(C)(C)N)c2)c1 [XL147] (first compound 0.075 µM, partner dose 4 µM)",69.9
